Experimental data as given in the supplement of paper PMC12067230.
Single values of this set are uncertain.

Test: amyloid nucleation score relative to library mode (yeast Sup35 reporter selection) (log enrichment difference); higher = more amyloid nucleation; sequences are the first 22 residues of the Bri2 peptide extended by up to 12 random residues
Settings: random library (experiment): 1;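 active = nucleation score significantly above 0 at FDR 0.05; inactive = not significantly above 0 or absent from output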
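Further: [psi-pin-] Saccharomyces cerevisiae expressing SupN fusions, induced by 100 µM Cu2SO4, selected 7 d at 30 °C without adenine and uracil, scored by deep sequencing of output versus input.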

Row | Sequence | amyloid nucleation score
1 | EASNCFAIRHFENKFAVETLICYFVDRGTRRLGW | 6.24
2 | EASNCFAIRHFENKFAVETLICYFVLVELGVGCG | 5.59
3 | EASNCFAIRHFENKFAVETLICYFVRKSCLSSCL | inactive
4 | EASNCFAIRHFENKFAVETLICYG | inactive
5 | EASNCFAIRHFENKFAVETLICYGADDGLLCPRW | 1.96
6 | EASNCFAIRHFENKFAVETLICYGCTVLRLHRYL | -0.12
7 | EASNCFAIRHFENKFAVETLICYGESRYACRAKV | inactive
8 | EASNCFAIRHFENKFAVETLICYGFCSEGNMSSP | 8.17
9 | EASNCFAIRHFENKFAVETLICYGFPKATHHDVW | 2.71
10 | EASNCFAIRHFENKFAVETLICYGGMRNSSKVRC | inactive
11 | EASNCFAIRHFENKFAVETLICYGIYNGFLWFCR | inactive
12 | EASNCFAIRHFENKFAVETLICYGKFKCVLLTCR | inactive
13 | EASNCFAIRHFENKFAVETLICYGLTLQDTKLHL | 5.36
14 | EASNCFAIRHFENKFAVETLICYGMWDWSLMSNL | inactive
15 | EASNCFAIRHFENKFAVETLICYGRIKQRYDQVS | inactive
16 | EASNCFAIRHFENKFAVETLICYGRTEFCISW | -0.243
17 | EASNCFAIRHFENKFAVETLICYGSK | inactive
18 | EASNCFAIRHFENKFAVETLICYGSQDASGRTGW | 5.04
19 | EASNCFAIRHFENKFAVETLICYGVRQTRDVVFS | 4.19
20 | EASNCFAIRHFENKFAVETLICYGVSCDKRFSRE | 3.9
21 | EASNCFAIRHFENKFAVETLICYGWGAIQHARRD | 3.91
22 | EASNCFAIRHFENKFAVETLICYHAFPPGHHLL | inactive
23 | EASNCFAIRHFENKFAVETLICYHEA | inactive

Row | Sequence | amyloid nucleation score
24 | EASNCFAIRHFENKFAVETLICYHFPLNMKFELD | inactive
25 | EASNCFAIRHFENKFAVETLICYHGWDTSGDMGY | 0.879
26 | EASNCFAIRHFENKFAVETLICYHGYKYFYKHLW | inactive
27 | EASNCFAIRHFENKFAVETLICYHIRLMVDPGPE | inactive
28 | EASNCFAIRHFENKFAVETLICYHLYWS | inactive
29 | EASNCFAIRHFENKFAVETLICYHQSDESGCRGS | inactive
30 | EASNCFAIRHFENKFAVETLICYHSDYRKYLFMW | 1.24
31 | EASNCFAIRHFENKFAVETLICYHSVCWTCMRLG | 4.27
32 | EASNCFAIRHFENKFAVETLICYHVISAYDRGWG | inactive
33 | EASNCFAIRHFENKFAVETLICYHWKDIFTPLEG | 3.87
34 | EASNCFAIRHFENKFAVETLICYIALVMR | 0.833
35 | EASNCFAIRHFENKFAVETLICYIARRVVRMWTR | inactive
36 | EASNCFAIRHFENKFAVETLICYICRCS | 4.5
37 | EASNCFAIRHFENKFAVETLICYIDGIWYRCLCA | 0.369
38 | EASNCFAIRHFENKFAVETLICYIDWKWNILTGK | 0.49
39 | EASNCFAIRHFENKFAVETLICYILFAYLAWSVK | 2.64
40 | EASNCFAIRHFENKFAVETLICYILTRRKGSGCV | -0.0664
41 | EASNCFAIRHFENKFAVETLICYILVLCSRVRCR | inactive
42 | EASNCFAIRHFENKFAVETLICYIPLLHIFFQMP | inactive
43 | EASNCFAIRHFENKFAVETLICYIPLVLCTMYGV | 4.84
44 | EASNCFAIRHFENKFAVETLICYIPMRGLVSWAW | inactive
45 | EASNCFAIRHFENKFAVETLICYIRLDK | 1.89
46 | EASNCFAIRHFENKFAVETLICYIVYGMERLLVW | inactive

Same assay, conditions: random library (experiment): 2

Row | Sequence | amyloid nucleation score
47 | EASNCFAIRHFENKFAVETLICYFSSCSYGVAAC | inactive
48 | EASNCFAIRHFENKFAVETLICYFSVEGSQFLLM | -0.0198
49 | EASNCFAIRHFENKFAVETLICYFYRH | inactive
50 | EASNCFAIRHFENKFAVETLICYGDVYTFLLLMG | 4.25
51 | EASNCFAIRHFENKFAVETLICYGDYFYPSFWFV | 6.04
52 | EASNCFAIRHFENKFAVETLICYGFKSLSKFCFF | inactive
53 | EASNCFAIRHFENKFAVETLICYGLGVGSCVCIL | 6.25
54 | EASNCFAIRHFENKFAVETLICYGMYNFLIVYFP | inactive
55 | EASNCFAIRHFENKFAVETLICYGQIYDESRWWA | 8.33
56 | EASNCFAIRHFENKFAVETLICYGRETFTVKMFL | 3.31
57 | EASNCFAIRHFENKFAVETLICYGRVCISNVHNV | 7.3
58 | EASNCFAIRHFENKFAVETLICYGSMVHVEHSVI | 7.99
59 | EASNCFAIRHFENKFAVETLICYGVDCCHYGFRL | 5.46
60 | EASNCFAIRHFENKFAVETLICYGVFGNGFRAIG | inactive
61 | EASNCFAIRHFENKFAVETLICYGVFSR | 6.27
62 | EASNCFAIRHFENKFAVETLICYGVYHGWYKRLS | inactive
63 | EASNCFAIRHFENKFAVETLICYGWVWNRSGIVW | inactive
64 | EASNCFAIRHFENKFAVETLICYGY | 1.52
65 | EASNCFAIRHFENKFAVETLICYGYTGSDKCGLR | 4.47
66 | EASNCFAIRHFENKFAVETLICYHFKMFQRIVCH | -0.0296
67 | EASNCFAIRHFENKFAVETLICYHGLLADSVLRR | 3.77
68 | EASNCFAIRHFENKFAVETLICYHGVASNYSHCN | 4.86
69 | EASNCFAIRHFENKFAVETLICYHKVVWNNFVCW | inactive
70 | EASNCFAIRHFENKFAVETLICYHPRYLVSVVRR | inactive
71 | EASNCFAIRHFENKFAVETLICYHYHNFFGAFGG | 0.908
72 | EASNCFAIRHFENKFAVETLICYICRT | 4.66

Row | Sequence | amyloid nucleation score
73 | EASNCFAIRHFENKFAVETLICYICSCNYLSSCP | 7.77
74 | EASNCFAIRHFENKFAVETLICYICTV | 6.26
75 | EASNCFAIRHFENKFAVETLICYIDNDV | 6.2
76 | EASNCFAIRHFENKFAVETLICYIICVDMTGRSR | inactive
77 | EASNCFAIRHFENKFAVETLICYIIIKGYMFFKP | inactive
78 | EASNCFAIRHFENKFAVETLICYIIKACHSIQPD | inactive
79 | EASNCFAIRHFENKFAVETLICYIKLACSQLYV | inactive
80 | EASNCFAIRHFENKFAVETLICYIL | 8.23
81 | EASNCFAIRHFENKFAVETLICYILCR | inactive
82 | EASNCFAIRHFENKFAVETLICYILDVDNLCSGL | 5.89
83 | EASNCFAIRHFENKFAVETLICYILLGRKLCWSR | inactive
84 | EASNCFAIRHFENKFAVETLICYILMDKSRKVSR | 5.96
85 | EASNCFAIRHFENKFAVETLICYIMF | 6.36
86 | EASNCFAIRHFENKFAVETLICYIMGTYCMGQKS | 3.87
87 | EASNCFAIRHFENKFAVETLICYIPRSTIYSCCW | inactive
88 | EASNCFAIRHFENKFAVETLICYIQS | 7
89 | EASNCFAIRHFENKFAVETLICYIRPSGNKCSF | 2.71
90 | EASNCFAIRHFENKFAVETLICYIRYLSSFVEYF | inactive
91 | EASNCFAIRHFENKFAVETLICYISCVC | 2.56
92 | EASNCFAIRHFENKFAVETLICYISIVSFLKHSW | -0.0953
93 | EASNCFAIRHFENKFAVETLICYISLDHLAPISF | inactive
94 | EASNCFAIRHFENKFAVETLICYIVWPRLPDGST | 5.94
95 | EASNCFAIRHFENKFAVETLICYIWWNMMGSSK | inactive
96 | EASNCFAIRHFENKFAVETLICYIY | 6.47
97 | EASNCFAIRHFENKFAVETLICYIYDQSKNFGLD | 8.96

Same assay, conditions: random library (experiment): 3

Row | Sequence | amyloid nucleation score
98 | EASNCFAIRHFENKFAVETLICYFVSPCCSSFVL | 6.47
99 | EASNCFAIRHFENKFAVETLICYFVTFCYKVRAR | inactive
100 | EASNCFAIRHFENKFAVETLICYGELVHGLKDRA | 5.65
101 | EASNCFAIRHFENKFAVETLICYGFFVA | 6.28
102 | EASNCFAIRHFENKFAVETLICYGFRSSVCCV | -0.281
103 | EASNCFAIRHFENKFAVETLICYGFVLKFDAWSV | inactive
104 | EASNCFAIRHFENKFAVETLICYGPYSVTAKAGA | inactive
105 | EASNCFAIRHFENKFAVETLICYGQSGAQRLAGF | 2.91
106 | EASNCFAIRHFENKFAVETLICYGR | 0.328
107 | EASNCFAIRHFENKFAVETLICYGWGRRP | 4.92
108 | EASNCFAIRHFENKFAVETLICYHAQLMLHVGQR | inactive
109 | EASNCFAIRHFENKFAVETLICYHFLRRVCVEVG | inactive
110 | EASNCFAIRHFENKFAVETLICYHGHLLIHLGTR | 3.27
111 | EASNCFAIRHFENKFAVETLICYHGLLVPCDA | inactive
112 | EASNCFAIRHFENKFAVETLICYHGVPSEYSR | inactive
113 | EASNCFAIRHFENKFAVETLICYHRGVVFGCVWN | 5.86
114 | EASNCFAIRHFENKFAVETLICYHRNSSGSSVRR | 3.45
115 | EASNCFAIRHFENKFAVETLICYHS | inactive
116 | EASNCFAIRHFENKFAVETLICYHWYEVMSRRFT | inactive
117 | EASNCFAIRHFENKFAVETLICYIKYEADVIKSV | inactive
118 | EASNCFAIRHFENKFAVETLICYIPGRCCVYYKS | inactive
119 | EASNCFAIRHFENKFAVETLICYIPYRVAGLHRL | inactive
120 | EASNCFAIRHFENKFAVETLICYITLCVLLNCML | inactive
121 | EASNCFAIRHFENKFAVETLICYIVR | 0.0274
